Measurements taken from PMC6919601, “Identification of Plasmodium dipeptidyl aminopeptidase allosteric inhibitors by high throughput screening” (PLoS ONE, 2019).
Screen size: about 110,000 compounds; about 230 (0.21%) showed an effect of 50% or more. This is one part of the list.

Molecular target: DPAP1 (Plasmodium falciparum, UniProt Q8IIJ9)
Assay: primary screen, percent inhibition; read by cleavage of a fluorogenic dipeptide substrate; higher = more effect of the substance
Set-up: species or system P. falciparum D10 trophozoite lysates; single well
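Also: 30 min substrate incubation versus DMSO and 10 µM JCP410 controls.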

Sequence of DPAP1 (Q8IIJ9 whole entry, looked up): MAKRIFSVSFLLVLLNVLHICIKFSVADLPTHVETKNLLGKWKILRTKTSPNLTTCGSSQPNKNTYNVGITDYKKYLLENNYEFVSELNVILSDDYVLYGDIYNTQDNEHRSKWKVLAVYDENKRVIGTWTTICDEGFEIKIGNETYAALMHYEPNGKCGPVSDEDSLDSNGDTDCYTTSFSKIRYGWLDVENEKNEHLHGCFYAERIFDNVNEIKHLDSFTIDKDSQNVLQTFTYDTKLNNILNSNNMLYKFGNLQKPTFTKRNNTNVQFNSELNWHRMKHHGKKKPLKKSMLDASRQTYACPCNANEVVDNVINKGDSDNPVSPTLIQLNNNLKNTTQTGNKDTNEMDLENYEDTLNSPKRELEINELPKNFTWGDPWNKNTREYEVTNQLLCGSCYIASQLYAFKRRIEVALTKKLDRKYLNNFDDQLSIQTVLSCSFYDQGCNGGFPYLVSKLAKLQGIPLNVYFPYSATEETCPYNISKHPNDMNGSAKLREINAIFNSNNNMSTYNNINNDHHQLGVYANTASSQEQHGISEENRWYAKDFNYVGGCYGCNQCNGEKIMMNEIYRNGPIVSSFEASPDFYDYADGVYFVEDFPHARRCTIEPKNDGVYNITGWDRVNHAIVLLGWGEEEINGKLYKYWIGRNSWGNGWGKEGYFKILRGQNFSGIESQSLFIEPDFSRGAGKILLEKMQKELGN

SMILES	% Inhibition @ 10 uM
COc1ccccc1CNC(=O)COCc1cc(-c2ccc(F)cc2)on1	-6.43%
Nc1oc2c(CN3CCCCCC3)c(O)ccc2c(=O)c1-c1nc2ccccc2s1	-4.78%
CCOC(=O)C1=CN(C(C)C)C=C(C(=O)OCC)C1c1ccc(O)c(OC)c1	-1.48%
CCc1ccccc1NC(=O)CN(c1ccc(OC)c(Cl)c1)S(C)(=O)=O	1.89%
CC(C)Cc1nc2ccccc2[nH]1	-4.02%
COc1cc(CNCc2ccc(Br)cc2)cc(OC)c1OC	-11.7%
Cc1nn(CC(=O)NCc2ccco2)c(=O)c2cc3cc(F)ccc3n12	-1.7%
O=C(Nc1cccnc1Cl)c1cnn2c(C(F)(F)F)cc(-c3ccc(Br)cc3)nc12	-3.71%
COC(=O)c1c(/N=C/N(C)C)c(C#N)c2n1CCCCC2	1.24%
Cc1[nH]c2ccccc2c1/C=C/c1nc2ccccc2c(=O)n1C	-0.641%
O=c1cccc2n1C[C@H]1C[C@@H]2CN(Cc2cccnc2)C1	-2.48%
O=C(Cc1ccccc1)Nc1ccc2oc(-c3cccnc3)nc2c1	27.4%
CC12c3ccccc3C(c3ccccc31)C1C(=O)N(c3cccnc3)C(=O)C12 (stereo not drawn)	-3.26%
CCOC(=O)c1cnc(-c2ccccc2)nc1NC	2.65%
COc1ccc(N(CC(=O)Nc2ccccc2Br)S(C)(=O)=O)cc1OC	3.17%
COc1ccccc1OCCCn1cc(C(=O)C2CC2)c2ccccc21	4.84%
O=C(Nc1cccc(C(F)(F)F)c1)/C(=C\c1cccs1)NC(=O)c1ccccc1	-4.76%
CC(NC(=O)CSCc1cccc(Br)c1)c1ccccc1 (stereo not drawn)	7.77%
O=C(c1cc2c(O)nc3ccccc3c2s1)N1CCC2(CC1)OCCO2	1.23%
COCCC/N=C/C1=C(O)c2sccc2N(Cc2ccccc2)S1(=O)=O	5.25%
CC1=C(C(=O)NCCN2CCN(Cc3ccccc3)CC2)C2(CCCCC2)OC1=O	3.19%
CCOc1ccc(CNS(=O)(=O)c2ccc(-c3cc(C(F)(F)F)no3)s2)cc1OC	-5.31%
CC12CN3CC(c4ccccc4)(CN(C1)C3c1ccc3c(c1)OCO3)C2=O (stereo not drawn)	-3.31%
CC(=O)N1CCN(Cc2ccc(Br)o2)CC1	3.06%
CCOc1ccc(C(=O)Nc2c(C)cccc2CC)cc1	-3.28%
CCCOc1ccc(/C=c2\sc3nc(-c4cc(OC)c(OC)c(OC)c4)nn3c2=O)cc1	-1.18%

SMILES	% Inhibition @ 10 uM
COc1ccc(CN2CCC(N3CCCC(C)C3)CC2)c(OC)c1 (stereo not drawn)	0.222%
Cn1c(=O)c2c(nc3n(CCO)c(C45CC6CC(CC(C6)C4)C5)cn23)n(C)c1=O	0.121%
Cc1ccc(C(=O)O/N=C(\N)c2cccnc2)cc1Cl	-1.25%
O=C(Nc1ccc(-c2cn3cccnc3n2)cc1)c1ccc(Cl)cc1	2.01%
Cc1cc(OCC(O)CN2CCCCCC2)ccc1C(C)C (stereo not drawn)	-3.27%
COc1ccc(S(=O)(=O)N(CC(=O)NCCO)Cc2ccccc2)cc1	3.47%
COC(=O)c1cc(S(=O)(=O)NCCN2CCOCC2)cn1C	5.4%
COc1ccc2c(CNCc3ccc(OC(C)C)cc3)c(C(=O)O)n(Cc3ccc(C)cc3)c2c1	0.16%
O=C(N/C(=C/c1ccc(Br)cc1)C(=O)N1CCCC1)c1ccccc1F	-4.68%
COC(=O)C1=C(C)N(CCc2ccc(OC)c(OC)c2)C(=O)/C1=C\c1ccc(O)cc1	-1.6%
O=C(O)CC(c1ccccc1Cl)N1C(=O)c2ccccc2C1=O (stereo not drawn)	-0.222%
CCc1ccc(NC(=O)c2cccnc2)cc1	-3.37%
O=S1(=O)C2(Cl)CCC1(Cl)C(Cl)=C2Cl	-3.41%
CCOC(=O)/C(C#N)=C/c1c(Oc2ccc(C)cc2C)nc2ccccn2c1=O	-1.43%
CN1CCN(C2Cc3ccc(F)cc3Sc3ccccc32)CC1 (stereo not drawn)	-3.97%
COC(=O)C1=C(N)Oc2cc(C)n(CC3CCCO3)c(=O)c2C1c1ccccc1 (stereo not drawn)	-4.78%
CC(=O)N(C)c1ccc(NC(=O)COc2ccc(C(C)(C)C)cc2)cc1	0.145%
CCC1CCc2c(sc(NC(=O)C3CC3)c2C(N)=O)C1 (stereo not drawn)	17.4%
CCN(CC)CCNC(=O)c1nc(-c2ccc(-n3cccc3)cc2)no1	1.84%
COCC(C)NCc1c(F)cccc1F (stereo not drawn)	5.01%
O=C(NCc1cccnc1)c1ccc(CN2CC(=O)N3CCCCC3C2=O)cc1 (stereo not drawn)	-3.88%
Cc1ccc(/C=C(/C#N)c2nc(-c3ccccc3)cs2)cc1	-3.79%
CCOC(=O)N1CCC(NCc2c(C(=O)O)n(Cc3ccccc3F)c3ccccc23)CC1	3.54%
O=C(Nc1cccnc1Cl)c1cc(-c2ccc(O)cc2)on1	-2.65%
CCc1nc2ccc(C(=O)NCCCN3CCN(Cc4ccccc4)CC3)cc2nc1CC	-4.18%
